US11178870B2 (priority 2017, dated 2021)

Tests used:
Assay type in all cases: in vivo
Puccinia recondita = assay: Test Example E: Brown rust on wheat; conditions: for control value, Test E (brown rust on wheat): Table 7, Test E; for Test E control value (brown rust on wheat): class of control value, Table 7; for Test E control value: Brown rust on wheat
Botrytis cinerea = assay: Test Example B: Gray mold on tomato; conditions: for control value, Test B (gray mold on tomato): Table 7, Test B; for Test B control value (gray mold on tomato): class of control value, Table 7; for Test B control value: Gray mold on tomato
Plasmopara viticola = assay: Test Example G: Downy mildew on vine; conditions: for control value, Test G (downy mildew on vine): 250 ppm sprayed (2.5 ml/pot) before inoculation, assessed 7 to 10 days after inoculation; for Test G control value (downy mildew on vine): 250 ppm spray, investigated 7 to 10 days after inoculation; for Test G control value (downy mildew on vine) / Test G control value: 2.5 ml/pot; for Test G control value: Downy mildew on vine, 250 ppm sprayed, 7 to 10 days after inoculation
Alternaia brassicicola = assay: Test Example C: Alternaria sooty spot on cabbage; conditions: for control value, Test C (Alternaria sooty spot on cabbage): Table 7, Test C; for Test C control value (Alternaria sooty spot on cabbage): class of control value, Table 7; for Test C control value: Alternaria sooty spot on cabbage
[1] = system: Blumeria graminis f. sp. hordei; assay: Test Example D: Powdery mildew on barley; conditions: for control value, Test D (powdery mildew on barley): Table 7, Test D; for Test D control value (powdery mildew on barley): class of control value, Table 7; for Test D control value: Powdery mildew on barley

O=c1c(Cl)cc(-n2cc(Cl)cn2)c(-c2ccccc2Cl)n1CC(F)F [Compound 293]
control value, Test E (brown rust on wheat) (Puccinia recondita): H (H shows the control value more than 50%)
control value, Test B (gray mold on tomato) (Botrytis cinerea): H (H shows the control value more than 50%)
control value, Test G (downy mildew on vine) (Plasmopara viticola): L (L shows the control value of 50% or less)
control value, Test C (Alternaria sooty spot on cabbage) (Alternaia brassicicola): H (H shows the control value more than 50%)
control value, Test D (powdery mildew on barley) [1]: H (H shows the control value more than 50%)

Cc1cnn(-c2ccc(=O)n(CC(F)F)c2-c2ccccc2Br)c1 [Compound 405]
Test E control value (brown rust on wheat) (Puccinia recondita): H (H shows the control value more than 50%)
Test B control value (gray mold on tomato) (Botrytis cinerea): L (L shows the control value of 50% or less)
Test G control value (downy mildew on vine) (Plasmopara viticola): L (L shows the control value of 50% or less)
Test C control value (Alternaria sooty spot on cabbage) (Alternaia brassicicola): H (H shows the control value more than 50%)
Test D control value (powdery mildew on barley) [1]: H (H shows the control value more than 50%)

Cn1c(-c2c(F)cccc2F)c(-c2ccsc2)ccc1=O [Compound 15]
Test E control value (Puccinia recondita): H (H shows the control value more than 50%)
Test B control value (Botrytis cinerea): H (H shows the control value more than 50%)
Test G control value (Plasmopara viticola): L (L shows the control value of 50% or less)
Test C control value (Alternaia brassicicola): L (L shows the control value of 50% or less)
Test D control value [1]: H (H shows the control value more than 50%)

CCn1c(-c2c(F)cc(OC)cc2F)c(-n2cc(Cl)cn2)ccc1=O [Compound 238]
control value, Test E (brown rust on wheat) (Puccinia recondita): H (H shows the control value more than 50%)
control value, Test B (gray mold on tomato) (Botrytis cinerea): H (H shows the control value more than 50%)
control value, Test G (downy mildew on vine) (Plasmopara viticola): L (L shows the control value of 50% or less)
control value, Test C (Alternaria sooty spot on cabbage) (Alternaia brassicicola): H (H shows the control value more than 50%)
control value, Test D (powdery mildew on barley) [1]: H (H shows the control value more than 50%)

CCn1c(-c2ccc(F)cc2Br)c(-n2cc(Cl)cn2)ccc1=O [Compound 164]
Test E control value (Puccinia recondita): H (H shows the control value more than 50%)
Test B control value (Botrytis cinerea): H (H shows the control value more than 50%)
Test G control value (Plasmopara viticola): L (L shows the control value of 50% or less)
Test C control value (Alternaia brassicicola): H (H shows the control value more than 50%)
Test D control value [1]: H (H shows the control value more than 50%)

CCn1c(-c2c(F)cccc2F)c(-c2cnc(N(C)C)o2)cc(Cl)c1=O [Compound 131]
Test E control value (Puccinia recondita): L (L shows the control value of 50% or less)
Test B control value (Botrytis cinerea): L (L shows the control value of 50% or less)
Test G control value (Plasmopara viticola): L (L shows the control value of 50% or less)
Test C control value (Alternaia brassicicola): H (H shows the control value more than 50%)
Test D control value [1]: L (L shows the control value of 50% or less)

CCn1c(-c2c(F)cccc2F)c(-c2sccc2C)cc(Cl)c1=O [Compound 381]
Test E control value (brown rust on wheat) (Puccinia recondita): H (H shows the control value more than 50%)
Test B control value (gray mold on tomato) (Botrytis cinerea): H (H shows the control value more than 50%)
Test G control value (downy mildew on vine) (Plasmopara viticola): H (H shows the control value more than 50%)
Test C control value (Alternaria sooty spot on cabbage) (Alternaia brassicicola): H (H shows the control value more than 50%)
Test D control value (powdery mildew on barley) [1]: H (H shows the control value more than 50%)

CCn1c(-c2c(F)cccc2F)c(-c2ccsc2Cl)cc(Br)c1=O [Compound 299]
control value, Test E (brown rust on wheat) (Puccinia recondita): H (H shows the control value more than 50%)
control value, Test B (gray mold on tomato) (Botrytis cinerea): H (H shows the control value more than 50%)
control value, Test G (downy mildew on vine) (Plasmopara viticola): L (L shows the control value of 50% or less)
control value, Test C (Alternaria sooty spot on cabbage) (Alternaia brassicicola): H (H shows the control value more than 50%)
control value, Test D (powdery mildew on barley) [1]: L (L shows the control value of 50% or less)

O=c1c(Br)cc(-c2cc(Br)sc2Br)c(-c2c(F)cccc2F)n1CC(F)F [Compound 325]
control value, Test E (brown rust on wheat) (Puccinia recondita): L (L shows the control value of 50% or less)
control value, Test B (gray mold on tomato) (Botrytis cinerea): L (L shows the control value of 50% or less)
control value, Test G (downy mildew on vine) (Plasmopara viticola): L (L shows the control value of 50% or less)
control value, Test C (Alternaria sooty spot on cabbage) (Alternaia brassicicola): H (H shows the control value more than 50%)
control value, Test D (powdery mildew on barley) [1]: L (L shows the control value of 50% or less)

Cc1ccsc1-c1cc(Cl)c(=O)n(C)c1-c1c(F)cccc1F [Compound 498]
Test E control value (brown rust on wheat) (Puccinia recondita): H (H shows the control value more than 50%)
Test B control value (gray mold on tomato) (Botrytis cinerea): H (H shows the control value more than 50%)
Test G control value (downy mildew on vine) (Plasmopara viticola): H (H shows the control value more than 50%)
Test C control value (Alternaria sooty spot on cabbage) (Alternaia brassicicola): H (H shows the control value more than 50%)
Test D control value (powdery mildew on barley) [1]: H (H shows the control value more than 50%)

Nn1c(-c2c(F)cccc2F)c(-c2ccsc2Cl)cc(Br)c1=O [Compound 399]
Test E control value (brown rust on wheat) (Puccinia recondita): H (H shows the control value more than 50%)
Test B control value (gray mold on tomato) (Botrytis cinerea): H (H shows the control value more than 50%)
Test G control value (downy mildew on vine) (Plasmopara viticola): L (L shows the control value of 50% or less)
Test C control value (Alternaria sooty spot on cabbage) (Alternaia brassicicola): L (L shows the control value of 50% or less)
Test D control value (powdery mildew on barley) [1]: L (L shows the control value of 50% or less)

COc1ccc(-c2c(-n3cc(F)cn3)cc(Br)c(=O)n2CC(F)F)c(Br)c1 [Compound 450]
Test E control value (brown rust on wheat) (Puccinia recondita): H (H shows the control value more than 50%)
Test B control value (gray mold on tomato) (Botrytis cinerea): H (H shows the control value more than 50%)
Test G control value (downy mildew on vine) (Plasmopara viticola): L (L shows the control value of 50% or less)
Test C control value (Alternaria sooty spot on cabbage) (Alternaia brassicicola): H (H shows the control value more than 50%)
Test D control value (powdery mildew on barley) [1]: L (L shows the control value of 50% or less)

CCn1c(-c2c(F)cccc2F)c(-n2cc(F)cn2)cc(Br)c1=O [Compound 320]
control value, Test E (brown rust on wheat) (Puccinia recondita): H (H shows the control value more than 50%)
control value, Test B (gray mold on tomato) (Botrytis cinerea): H (H shows the control value more than 50%)
control value, Test G (downy mildew on vine) (Plasmopara viticola): L (L shows the control value of 50% or less)
control value, Test C (Alternaria sooty spot on cabbage) (Alternaia brassicicola): H (H shows the control value more than 50%)
control value, Test D (powdery mildew on barley) [1]: H (H shows the control value more than 50%)

Cc1ccsc1C1=C(c2c(F)cccc2F)N(C)C(=O)CC1 [Compound 457]
Test E control value (brown rust on wheat) (Puccinia recondita): H (H shows the control value more than 50%)
Test B control value (gray mold on tomato) (Botrytis cinerea): H (H shows the control value more than 50%)
Test G control value (downy mildew on vine) (Plasmopara viticola): L (L shows the control value of 50% or less)
Test C control value (Alternaria sooty spot on cabbage) (Alternaia brassicicola): H (H shows the control value more than 50%)
Test D control value (powdery mildew on barley) [1]: L (L shows the control value of 50% or less)

O=c1c(Cl)cc(-n2cc(Cl)cn2)c(-c2c(F)cc(F)cc2F)n1CC(F)F [Compound 110]
Test E control value (Puccinia recondita): H (H shows the control value more than 50%)
Test B control value (Botrytis cinerea): H (H shows the control value more than 50%)
Test G control value (Plasmopara viticola): L (L shows the control value of 50% or less)
Test C control value (Alternaia brassicicola): H (H shows the control value more than 50%)
Test D control value [1]: H (H shows the control value more than 50%)

CCn1c(-c2c(F)cccc2F)c(-n2cc(Cl)cn2)ccc1=O [Compound 52]
Test E control value (Puccinia recondita): H (H shows the control value more than 50%)
Test B control value (Botrytis cinerea): H (H shows the control value more than 50%)
Test G control value (Plasmopara viticola): L (L shows the control value of 50% or less)
Test C control value (Alternaia brassicicola): H (H shows the control value more than 50%)
Test D control value [1]: H (H shows the control value more than 50%)

CCn1c(-c2c(F)cc(F)cc2F)c(-n2c(Cl)ccc2Cl)cc(Cl)c1=O [Compound 133]
Test E control value (Puccinia recondita): H (H shows the control value more than 50%)
Test B control value (Botrytis cinerea): H (H shows the control value more than 50%)
Test G control value (Plasmopara viticola): H (H shows the control value more than 50%)
Test C control value (Alternaia brassicicola): H (H shows the control value more than 50%)
Test D control value [1]: H (H shows the control value more than 50%)

O=c1c(Br)cc(-c2sc(Br)cc2Cl)c(-c2c(F)cccc2F)n1CC(F)F [Compound 432]
Test E control value (brown rust on wheat) (Puccinia recondita): L (L shows the control value of 50% or less)
Test B control value (gray mold on tomato) (Botrytis cinerea): H (H shows the control value more than 50%)
Test G control value (downy mildew on vine) (Plasmopara viticola): L (L shows the control value of 50% or less)
Test C control value (Alternaria sooty spot on cabbage) (Alternaia brassicicola): H (H shows the control value more than 50%)
Test D control value (powdery mildew on barley) [1]: H (H shows the control value more than 50%)

Cn1c(-c2c(F)cccc2F)c(-c2ccsc2Br)ccc1=O [Compound 456]
Test E control value (brown rust on wheat) (Puccinia recondita): H (H shows the control value more than 50%)
Test B control value (gray mold on tomato) (Botrytis cinerea): H (H shows the control value more than 50%)
Test G control value (downy mildew on vine) (Plasmopara viticola): L (L shows the control value of 50% or less)
Test C control value (Alternaria sooty spot on cabbage) (Alternaia brassicicola): H (H shows the control value more than 50%)
Test D control value (powdery mildew on barley) [1]: L (L shows the control value of 50% or less)

CCn1c(-c2ccc(F)cc2C)c(-n2cc(Cl)cn2)cc(Br)c1=O [Compound 171]
Test E control value (Puccinia recondita): L (L shows the control value of 50% or less)
Test B control value (Botrytis cinerea): L (L shows the control value of 50% or less)
Test G control value (Plasmopara viticola): L (L shows the control value of 50% or less)
Test C control value (Alternaia brassicicola): L (L shows the control value of 50% or less)
Test D control value [1]: L (L shows the control value of 50% or less)

O=c1ccc(-n2cc(F)cn2)c(-c2ccc(F)cc2Br)n1CC(F)F [Compound 447]
Test E control value (brown rust on wheat) (Puccinia recondita): H (H shows the control value more than 50%)
Test B control value (gray mold on tomato) (Botrytis cinerea): H (H shows the control value more than 50%)
Test G control value (downy mildew on vine) (Plasmopara viticola): L (L shows the control value of 50% or less)
Test C control value (Alternaria sooty spot on cabbage) (Alternaia brassicicola): H (H shows the control value more than 50%)
Test D control value (powdery mildew on barley) [1]: H (H shows the control value more than 50%)
